At least one peptide structure holds a part that was inferred or is arguable (an end, a ring closure or a residue). Some entries repeat one wording, which the source may state once for all of them. Where no end group is shown, it is not given here.
Tests used:
malondialdehyde (MDA) = experiment: Antioxidant activity test on keratinocytes: cell MDA assay kit; format: cell-based, Human; details: UVB 30 mJ/cm^2, HaCaT lysate, blank 0.413, model 1.288, Mean ± SEM
[1] = tested on: Human keratinocytes (HaCaT cells); experiment: Anti-inflammatory activity test on keratinocytes, overall statements (UV-induced cell inflammation model); format: cell-based; details: in words; for anti-inflammatory efficacy: compared with polypeptide Acein; for anti-inflammatory ability: compared with the model group
TNF-α = experiment: Anti-inflammatory activity test on keratinocytes: TNF-α ELISA; format: cell-based, Human; details: UVB 30 mJ/cm^2, HaCaT supernatant, blank 2.890, model 10.812, Mean ± SEM
Method: Interleukin-6 ELISA assay kit (Shanghai Beyotime Biotechnology Co., Ltd.); tumor necrosis factor α ELISA assay kit (Shanghai Beyotime Biotechnology Co., Ltd.); 6-well plate (Wuxi NEST Biotechnology Co., Ltd.); and palmitoyl tetrapeptide-7 (Shenzhen Jianyuan Pharmaceutical Technology Co., Ltd.). Other experimental materials and instruments are the same as those in Examples 1, 2, and 3.
The cells were counted and calculated. […] After 24 hours of incubation, cell UV modeling was performed. The UVB lamp tube was turned on, and the radiation intensity was measured with a UV irradiance meter. When the radiation intensity reached 500 µW/cm^2, the uncovered 6-well plate was placed and irradiated for 1 minute such that the radiation dose was up to 30 mJ/cm^2. At the end of the radiation, the 6-well plate was covered and placed into the cell incubator.

catalase (CAT) = experiment: Antioxidant activity test on keratinocytes: CAT assay kit; format: cell-based, Human; details: UVB 30 mJ/cm^2, HaCaT lysate, blank 2.683, model 2.288, Mean ± SEM
[2] = tested on: Human keratinocytes (HaCaT cells); experiment: Antioxidant activity test on keratinocytes, overall statements (UV-induced oxidative damage model); format: cell-based; details: in words; for antioxidant capacity of cells: compared with polypeptide Acein; for antioxidant activity: compared with the model group
[3] = tested on: Human keratinocytes (HaCaT cells); format: cell-based; details: for slowing of UV irradiation-induced inhibition of cell growth / anti-UV damage ability: in words; for slowing of UV irradiation-induced inhibition of cell growth: compared with polypeptide Acein; for anti-UV damage ability: compared with the model group
[4] = tested on: Superoxide dismutase (SOD); experiment: Antioxidant activity test on keratinocytes: SOD assay kit; format: cell-based, Human; details: UVB 30 mJ/cm^2, HaCaT lysate, blank 96.406, model 81.925, Mean ± SEM

| Substance | MDA Activity (U/mgprot) (malondialdehyde (MDA); 1 µM) | MDA Activity (U/mgprot) (malondialdehyde (MDA); 10 µM) | MDA Activity (U/mgprot) (malondialdehyde (MDA); 100 µM) | anti-inflammatory efficacy [1] | anti-inflammatory ability [1] | TNF-α activity (pg/mgprot) (TNF-α; 1 µM) | TNF-α activity (pg/mgprot) (TNF-α; 10 µM) | TNF-α activity (pg/mgprot) (TNF-α; 100 µM) | CAT Activity (U/mgprot) (catalase (CAT); 1 µM) | CAT Activity (U/mgprot) (catalase (CAT); 10 µM) | CAT Activity (U/mgprot) (catalase (CAT); 100 µM) | antioxidant capacity of cells [2] | antioxidant activity [2] | slowing of UV irradiation-induced inhibition of cell growth [3] | anti-UV damage ability [3] | SOD Activity (U/mgprot) ([4]; 1 µM) | SOD Activity (U/mgprot) ([4]; 10 µM) | SOD Activity (U/mgprot) ([4]; 100 µM) | Cell Viability (%) ([3]; 1 nM, UVB 30 mJ/cm^2, HaCaT, relative to blank group (model group 80.09), Mean ± SEM) |
| --- | --- | --- | --- | --- | --- | --- | --- | --- | --- | --- | --- | --- | --- | --- | --- | --- | --- | --- | --- |
| LQTSLRALRQIGGGTKAAA [P8] | 1.006±0.020 | 1.005±0.053 | 1.034±0.047 | better anti-inflammatory efficacy | certain anti-inflammatory ability | 8.619±0.675 | 8.989±0.252 | 8.408±0.423 | 3.268±0.097 | 3.346±0.079 | 3.802±0.196 | improve the antioxidant capacity of cells more significantly | certain antioxidant activity | slow down the UV irradiation-induced inhibition of cell growth more significantly | certain anti-UV damage ability | 96.851±1.066 | 98.006±0.266 | 98.372±0.922 | – |
| GGGLQSSLRALRQM [P4] | 1.017±0.048 | 1.055±0.046 | 0.989±0.057 | – | certain anti-inflammatory ability | 6.474±0.790 | 6.291±0.372 | 4.610±0.360 | 2.689±0.070 | 2.746±0.042 | 3.370±0.236 | – | certain antioxidant activity | – | certain anti-UV damage ability | 109.826±0.390 | 98.207±1.152 | 98.422±0.358 | – |
| TKAAAGGGLQSSLRALRQM [TM-19] | 0.605±0.045 | 0.676±0.070 | 0.629±0.101 | – | certain anti-inflammatory ability | 8.148±0.231 | 5.565±0.240 | 7.119±1.413 | 1.990±0.127 | 2.778±0.317 | 2.419±0.238 | – | certain antioxidant activity | slow down the UV irradiation-induced inhibition of cell growth more significantly | certain anti-UV damage ability | 83.453±0.979 | 84.073±0.895 | 82.772±0.993 | – |
| TKAAAGGGLQTSLRALRQI [P10] | 0.793±0.012 | 0.788±0.033 | 0.993±0.045 | better anti-inflammatory efficacy | certain anti-inflammatory ability | 7.807±0.439 | 7.812±0.500 | 8.118±0.916 | 3.332±0.071 | 3.730±0.074 | 2.476±0.065 | improve the antioxidant capacity of cells more significantly | certain antioxidant activity | slow down the UV irradiation-induced inhibition of cell growth more significantly | certain anti-UV damage ability | 100.822±0.627 | 97.685±0.922 | 83.280±0.554 | – |
| LQSSLRALRQM [P5] | 1.158±0.035 | 1.230±0.086 | 1.236±0.043 | – | certain anti-inflammatory ability | 5.931±0.364 | 5.587±0.361 | 5.332±0.063 | 2.842±0.104 | 3.323±0.049 | 3.287±0.120 | – | certain antioxidant activity | – | certain anti-UV damage ability | 99.523±0.858 | 85.166±1.044 | 85.809±0.332 | – |
| Ac-LQTSLRALRQIGGGTKAAA [P9] | 0.780±0.034 | 0.998±0.017 | 1.039±0.006 | better anti-inflammatory efficacy | certain anti-inflammatory ability | 8.186±0.469 | 7.731±0.982 | 7.242±0.405 | 3.665±0.215 | 3.438±0.117 | 2.713±0.093 | improve the antioxidant capacity of cells more significantly | certain antioxidant activity | slow down the UV irradiation-induced inhibition of cell growth more significantly | certain anti-UV damage ability | 91.724±0.207 | 94.461±0.793 | 87.008±0.553 | – |
| LQSSLRALRQMGGGTKAAA [LA-19] | 0.619 ± 0.040 | 0.796±0.100 | 0.707±0.050 | – | certain anti-inflammatory ability | 5.267±0.472 | 8.042±0.997 | 7.332±1.702 | 1.879 ± 0.155 | 2.238±0.189 | 2.926±0.354 | – | certain antioxidant activity | slow down the UV irradiation-induced inhibition of cell growth more significantly | certain anti-UV damage ability | 83.266 ± 0.899 | 87.238±1.709 | 96.252±1.222 | 92.60 ± 6.64 |

— patent EP4725954A1, “MODIFIED PEPTIDES SUCH AS POLYPEPTIDES LA-19 AND TM-19 HAVING ANTI-AGING AND REPAIRING EFFECTS AND USE THEREOF” (Anhui Dexin Huahai Biological Technology Co. Ltd., priority 2023, dated 2025)
